Among the data in PMC13375126 are binding values, retold here.

Sequences of proteins named here, by UniProt entry; tags and fusion partners are left off.
UniProt A0A640KTS5: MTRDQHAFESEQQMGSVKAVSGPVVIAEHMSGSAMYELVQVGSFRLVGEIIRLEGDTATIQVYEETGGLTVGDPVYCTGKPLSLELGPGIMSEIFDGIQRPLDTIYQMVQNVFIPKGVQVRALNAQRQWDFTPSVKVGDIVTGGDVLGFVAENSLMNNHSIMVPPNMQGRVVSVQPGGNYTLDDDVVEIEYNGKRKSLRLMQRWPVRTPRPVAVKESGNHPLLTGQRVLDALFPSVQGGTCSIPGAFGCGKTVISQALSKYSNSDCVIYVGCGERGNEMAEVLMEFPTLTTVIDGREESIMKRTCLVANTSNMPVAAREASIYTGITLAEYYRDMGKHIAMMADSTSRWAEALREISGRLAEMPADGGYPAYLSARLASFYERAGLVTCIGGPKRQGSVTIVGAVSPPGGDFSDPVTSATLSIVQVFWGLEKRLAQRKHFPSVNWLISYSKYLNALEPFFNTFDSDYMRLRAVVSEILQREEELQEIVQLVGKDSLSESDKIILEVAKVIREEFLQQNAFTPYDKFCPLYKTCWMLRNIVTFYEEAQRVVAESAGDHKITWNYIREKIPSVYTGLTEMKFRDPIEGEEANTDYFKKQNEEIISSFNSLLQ

Like-named read-outs stand apart in the source and are kept apart here. Results are given in words; binding and its absence hold for the method and conditions named. In cells and extracts the contact can be indirect. Some binding calls cover weakened binding; strength is not graded here.

Assay [1] has as its target T1, mNG-LtVtc4 (L. tarentolae).
T1 sequence: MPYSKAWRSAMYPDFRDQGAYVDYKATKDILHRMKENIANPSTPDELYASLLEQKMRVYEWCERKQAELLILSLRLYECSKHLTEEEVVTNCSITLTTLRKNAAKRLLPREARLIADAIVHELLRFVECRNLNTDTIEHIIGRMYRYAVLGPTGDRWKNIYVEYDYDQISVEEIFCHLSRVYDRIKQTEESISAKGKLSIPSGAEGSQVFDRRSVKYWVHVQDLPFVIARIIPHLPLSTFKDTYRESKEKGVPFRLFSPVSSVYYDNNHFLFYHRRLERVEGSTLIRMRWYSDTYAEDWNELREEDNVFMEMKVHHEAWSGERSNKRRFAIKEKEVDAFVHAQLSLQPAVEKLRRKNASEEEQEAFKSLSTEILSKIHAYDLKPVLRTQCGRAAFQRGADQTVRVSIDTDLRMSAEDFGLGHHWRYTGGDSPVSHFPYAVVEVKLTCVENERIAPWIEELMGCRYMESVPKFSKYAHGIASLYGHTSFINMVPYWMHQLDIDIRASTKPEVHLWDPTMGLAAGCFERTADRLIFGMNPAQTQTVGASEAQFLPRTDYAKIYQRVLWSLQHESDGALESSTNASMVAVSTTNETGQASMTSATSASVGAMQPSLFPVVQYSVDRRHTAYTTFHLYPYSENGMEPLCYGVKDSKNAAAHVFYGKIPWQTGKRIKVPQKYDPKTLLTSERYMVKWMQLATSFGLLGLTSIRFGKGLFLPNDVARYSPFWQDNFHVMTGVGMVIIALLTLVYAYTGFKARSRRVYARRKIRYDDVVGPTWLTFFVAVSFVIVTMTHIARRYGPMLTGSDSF
Kind of assay: pull-down; mNeonGreen-Trap agarose beads capture mNG-LtVtc4 from 1% DDM-solubilised lysate of L. tarentolae that also express the mCh-tagged candidate; overnight, 4 °C; 50 mM HEPES pH 7.5, 150 mM NaCl, 1 mM IP6, 1 mM DTT; washes with 0.05% DDM; SDS-PAGE with in-gel fluorescence.

Assay [2] addresses T2, mCh-LtVBP3 (L. tarentolae).
T2 sequence: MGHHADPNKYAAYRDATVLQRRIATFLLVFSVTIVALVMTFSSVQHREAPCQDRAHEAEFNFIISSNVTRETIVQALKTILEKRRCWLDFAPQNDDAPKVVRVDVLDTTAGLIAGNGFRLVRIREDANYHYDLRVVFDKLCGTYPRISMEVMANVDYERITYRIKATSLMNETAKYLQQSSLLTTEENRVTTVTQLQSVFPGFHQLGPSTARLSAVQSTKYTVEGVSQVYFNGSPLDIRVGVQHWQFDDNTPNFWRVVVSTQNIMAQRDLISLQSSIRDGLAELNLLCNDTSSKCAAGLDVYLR
Kind of assay: pull-down; RFP-Trap Magnetic Particles M-270 capture mCh-LtVBP3 from 1% DDM-solubilised lysate of L. tarentolae that also express mNG-LtVtc4; overnight, 4 °C; 50 mM HEPES pH 7.5, 150 mM NaCl, 1 mM IP6, 1 mM DTT; washes with 0.05% DDM; SDS-PAGE with in-gel fluorescence.

Assay [3] deals with T1, mNG-LtVtc4 (L. tarentolae). Kind of assay: pull-down; mNeonGreen-Trap agarose beads capture mNG-LtVtc4 from 1% DDM-solubilised lysate of L. tarentolae that also express the mCh-tagged candidate; overnight, 4 °C; 50 mM HEPES pH 7.5, 150 mM NaCl, 1 mM IP6, 1 mM DTT; washes with 0.05% DDM; SDS-PAGE with in-gel fluorescence. This is another data set of the same source.

On to “mCh-LtV-H+-ATPase_A (from UniProt A0A640KTS5 1-610)”, for which the binding result in assay [1] is on record as “no binding”.

B1: mNG-LtVtc4 (protein, UniProt A0A640K9H1 1-807)
chain: MPYSKAWRSAMYPDFRDQGAYVDYKATKDILHRMKENIANPSTPDELYASLLEQKMRVYEWCERKQAELLILSLRLYECSKHLTEEEVVTNCSITLTTLRKNAAKRLLPREARLIADAIVHELLRFVECRNLNTDTIEHIIGRMYRYAVLGPTGDRWKNIYVEYDYDQISVEEIFCHLSRVYDRIKQTEESISAKGKLSIPSGAEGSQVFDRRSVKYWVHVQDLPFVIARIIPHLPLSTFKDTYRESKEKGVPFRLFSPVSSVYYDNNHFLFYHRRLERVEGSTLIRMRWYSDTYAEDWNELREEDNVFMEMKVHHEAWSGERSNKRRFAIKEKEVDAFVHAQLSLQPAVEKLRRKNASEEEQEAFKSLSTEILSKIHAYDLKPVLRTQCGRAAFQRGADQTVRVSIDTDLRMSAEDFGLGHHWRYTGGDSPVSHFPYAVVEVKLTCVENERIAPWIEELMGCRYMESVPKFSKYAHGIASLYGHTSFINMVPYWMHQLDIDIRASTKPEVHLWDPTMGLAAGCFERTADRLIFGMNPAQTQTVGASEAQFLPRTDYAKIYQRVLWSLQHESDGALESSTNASMVAVSTTNETGQASMTSATSASVGAMQPSLFPVVQYSVDRRHTAYTTFHLYPYSENGMEPLCYGVKDSKNAAAHVFYGKIPWQTGKRIKVPQKYDPKTLLTSERYMVKWMQLATSFGLLGLTSIRFGKGLFLPNDVARYSPFWQDNFHVMTGVGMVIIALLTLVYAYTGFKARSRRVYARRKIRYDDVVGPTWLTFFVAVSFVIVTMTHIARRYGPMLTGSDSF
As for B1, the binding entry in assay [2] is listed as “binds”.

B2: mCh-LtZnT (protein, UniProt A0A640KNG3 1-443)
chain: MPMQTPGETTGLTAASAAPAAANYRAASPTVHVTVAEEKTIDQALTAVEARRESEKRVLLGALIFCFLFMIVEFASGAIAHSLALLTDAIHLLADVGSYALSIGALIAAGRAACGRYSYGWHRAEVIGTLISVFSIWALVTWIVIEAGYRTYDMYMCSLVPAQVSSGAVKVRECQAVDSRLVILVGVLGMVVNVVCASILYFGGSHGHSHFGSSHGHSHGSSEAHDHDHSHGDSHEHDHEHDHGHDHGHDHGYAAQSGGGIGSHKGFAVHAAILHAMGDCVQSIGVILAGCFIYFSNLAYYGKHTYEHSLFNLADPFCSVMFALITLNMTKSLLMDLLSILMESTPASVDYYALELALQKIDGVVSVHDLHVWSLSAEYVSLSVHLVADNSAEALHKAQHICKEHFGIGHTTIQIDPVAVGTAGCASACASPTAHDEISSHYM
In the case of B2, in assay [3], the binding result is given as “no binding”.

B3: mCh-LtCa2+-ATPase (protein, UniProt A0A640KEU5 1-1135)
chain: MSSAGKLSVGERCAPQPAPSSSMSSSKATLESAFAIHPETLHELISDGGQDASKRLARIGGLKGLAAQLKTDLVRGIDSTDMKAMAQRREWFSANELPEAEEASFMDMVWESLEDRMVQILIISALVSLVLGLTVPDQDTGLVDYAHGWIEGTAILLSVAIVTLVSSINNYQKEQKFKELSKATPPVKVQVVRSGTTLDITDKDLLSGDLLNVAAGDVLTVDGLVLRSTSLKVDESAATGENDDVAKSAHGDFVLRSGSNITEGEGTILVMGVGVHSFAGHIAMHVREAKEETPLQQKLEELANRIGYMGMAAAGLMFVLLSGKELLDTVVYHTHPFGYKKYLDNLMTAVTIVVVAVPEGLPLSVTIALAYSMKQMFKENNLVRHLAACETMGGATTICTDKTGTITQNDMSVTDGVTTYGVAYVVPRKLPTLAGEDEKAGSETVASHSPPLQTSTSMNASSVLGGAQAANVRRLLMECIAMNTKATLTRLESLNGKHATVRLTGSKTEQALLNFVNALGEDPMQLRSERLSRLNEEAMRTPSSPFSLVPWPTGLAGTSSNVVAAAATFTKDLRIYPFTSARKRMTTALVLRPEKLLRYYVKGASELILAECTHTYDAQGERVGLCHEVRMRLEEAIMAMARRQLRTLAIAYADYPLSSEDSVTSQGSSDSDEGGTTRSSPFLEDDARLVGLTLVGIVGIRDPVRLEVPEAVAQCRRAGVVVRMITGDNKATAVSIAKEVGIYGKVWSGPAKDEQGLALEGPQFRELAKSARKLNAILPRLQVISRASPMDKHILVSALMKRGEVVAVTGDGTNDAPALKGANVGFSMNSGTEVAKLASDVVILDDNFSTIVTAMKWGRNVNDNICKFLQFQMTVNVAAVVVSFIGALLDRNGDSPLKPVQLLWVNLIMDTLAALALATETPSDEVLLRPPKPKAAPLITRRMWLNIAGQSLYQILIQQYLLLGGTNTLGLAVQDSEELHTLIFNVFVLMQLSNEFNARILDNSVAFWHNLSNAPMFIIVVGTMFVIQIISVQYGGTFMQCVPLPLASWLTSLALGVVPLFLGFVLRRIGVVEKEIPPPLPVVDTEEEAALQLALKQHVRPTLRDTAGKVRMQLRVLKAFRANAQAQRVARTRSM
Consider B3, for which the binding result in assay [3] is listed as “no binding”.

B4: mCh-LtVtc1 (protein, UniProt A0A640KC32 1-180)
chain: MDATNRGLSYLCCVGGSLKPWAEGQDEGDDKYESLQGPGGRNLTGSVNDKRICVPQKIDPKTFFANERTFLKWLSISVMVGLMSLTLLNFGDSTNNGAELAGLVLLPVSIVFMVYSLFIFRDRANKIYMREPMRYDDTRGPTLLVLVLGSALALATLFSLQRQYTQTVVSSFSETARFSQ
With B4, the binding result in assay [3] is listed as “binds”.

B5: mCh-LtPho91 (protein, UniProt A0A640KRT3 1-734)
chain: MKFGKRLQDEIVLEWADYYVNYKRLKQFIHNSELRGGDFSNELFNIITEEIAKAEGLFQQLMADLQEEHGRLMKLNPDLPVAPVTKPSKFYRRKKGSSANDEAPNEETGLVSTATSSVCDQSVLDGELMPHHQRKGLGALFKRLFLLLIGDSQVKEVDSNTPRALFLEWHSNAHQLQHFAELNLEAIRKSAKKLKKYRRMEDDCTAAIEAELARSRLVTLMPRLRNLLLDVSVDFERKFKVPLDQYANVAMSQAWHARWRYIFVGAALFLVVKQLPVLKEDPAAHNCLALFVFIITLWITEAIPFFCTAMLIPLLAVPLRIVMDPTTHESATATVASQIILGKLFNHVQILVMGGLTMAKAFSRTNLEMYAASMLHRWTAHRPSLYLLGVMLSSCLLCAFVSNVAAPLLVLGVVQRTLWEFPEGTNAPHGILLGLAFACNIGGMLSPIASPQNAVAISALSFYKVSFAQWVGVALPVVLFCVVAAWAVVLIVWSPFADVPYIPLQVVNTAADEQVSSATRVVVLVVSAITITLWILPANLFFGDTGIVALIPIVVFFGIGILSKEDFNTLSWHLMFLLAGGNMLGLCARDSRLLDIIAMSMKSTLAHSPPYLTLFVVLVAVGVITTFVSHTVAAMILLPIIVKIGFLMPESTGIMTVTPQSMVMLSALMCSGAMAFPISSFPNVNSLLAEDAKGKPYLRAKDFLFCGTVITLVFAACLVTWMVPLSNYVLPSDH
On to B5, for which the binding result in assay [3] is “no binding”.

B6: mCh-LtVBP3 (protein, UniProt A0A640KSV0 1-304)
chain: MGHHADPNKYAAYRDATVLQRRIATFLLVFSVTIVALVMTFSSVQHREAPCQDRAHEAEFNFIISSNVTRETIVQALKTILEKRRCWLDFAPQNDDAPKVVRVDVLDTTAGLIAGNGFRLVRIREDANYHYDLRVVFDKLCGTYPRISMEVMANVDYERITYRIKATSLMNETAKYLQQSSLLTTEENRVTTVTQLQSVFPGFHQLGPSTARLSAVQSTKYTVEGVSQVYFNGSPLDIRVGVQHWQFDDNTPNFWRVVVSTQNIMAQRDLISLQSSIRDGLAELNLLCNDTSSKCAAGLDVYLR
As for B6, the binding result in assay [3] is given as “binds weakly”.

B7: mCh-LtVBP1 (protein, UniProt A0A640KSV2 1-122)
chain: MPCQVGQRNWTFTDSSVCYVTPNLRLRQCVCPLTTCTPTTEGYGCHLTSSAMILSSVLVIVWIMAACAYVYVLNYVGELELEARTEKVVSLSRNYYYHKLFGSDSTIVPSSVYVPDGKLRSE
For the molecule B7, the binding entry in assay [3] is reported as “binds”.
